# Laboratory results from PubChem BioAssay AID1347120 (National Center for Advancing Translational Sciences (NCATS), 2019).
# Out of some 390,000 compounds screened, about 930 (0.24%) were called active. This list was built around the results that the source calls inconclusive (neither active nor inactive); the mix of calls is not that of the screen. Calls come from the whole dose curve; as a rule, active = well fitted activation curve with a large enough effect; inconclusive = small, poorly fitted or top-dose-only effect; inactive = no such curve, though single readings can be large or run the other way. Potencies of inconclusive entries are doubtful fits and often do not repeat.
# Assay: qHTS for Suppressors of FUS Proteinopathy: Primary screen using FUS-linked yeast assay; note: nearly all actives have a fitted effect of over 55% in size;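 for growth rescue (activation): plate controls were DMSO vehicle for no effect and reference control for full effect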
# Settings: S. cerevisiae FUS-expressing, OD600, 24 h; Potency: growth rescue; growth rescue (activation): at 76.6 µM (top of the series)
# How it was run: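 Toxicity suppression screen in FUS-yeast. Cells induced with 2% galactose, starting OD 0.005, treated 24hr at 30C with compounds at multiple final concentrations; growth by OD600.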
# Potency is the fitted concentration of half-maximal effect; tags give direction and shape of the fitted curve.
Compound,Potency,growth rescue (activation)
CCOc1cc(/C=N/Nc2ccc(S(=O)(=O)Nc3ccccc3C(=O)O)cc2[N+](=O)[O-])cc(Cl)c1O,inactive,–
Cn1cc(-c2cc3n(n2)CCC(=O)N3CC(=O)NCc2ccccc2)c2ccccc21,inactive,–
O=S(=O)(Nc1ccc(S(=O)(=O)Nc2nccs2)cc1)c1ccc(Br)cc1,inactive,–
O=C(Cc1ccc(S(=O)(=O)N2CCOCC2)s1)N1CCN(c2ccc(C(F)(F)F)cc2[N+](=O)[O-])CC1,"inconclusive: 14.1 µM [activator, partial curve]",–
COc1ccc(N(C(=O)c2cc(OC)c(OC)c(OC)c2)S(=O)(=O)c2ccc(C)cc2)cc1,active: 31.6 µM,–
Cc1ccccc1CN1CCN(C(=O)[C@H]2O[C@@H](n3cnc4c(N)ncnc43)[C@H](O)[C@@H]2O)CC1,inactive,–
CC(=O)n1c2ccccc2c2ccccc21,inactive,–
Cc1ccccc1C(=O)Nc1ccc2nc(SCC(=O)N(C)c3ccccc3)sc2c1,"inconclusive: 28.2 µM [activator, single point]",–
CCCc1noc(-c2ccc(NCc3ccccc3OC)c([N+](=O)[O-])c2)n1,inactive,–
O=C(OCc1nnc(-c2ccccc2)o1)c1ccc2c(c1)OCO2,"inconclusive: 0.794 µM [activator, partial curve, poor fit]",–
COc1ccc(NS(=O)(=O)c2cc(NC(=O)c3ccccc3F)ccc2N2CCCC2)cc1,"inconclusive: 31.6 µM [activator, single point]",–
COc1ccc2c(Cl)c(C(=O)N/N=C3\CCCC(=O)C3)sc2c1,"inconclusive: 22.4 µM [activator, partial curve, poor fit]",–
CC(C)c1ccc(NC(=O)CSC2=Nc3ccccc3C3=NC(CC(=O)NCCc4ccccc4)C(=O)N23)cc1 (configuration not stated),"inconclusive: 39.8 µM [activator, single point]",–
Cc1ccc(S(=O)(=O)N2C[C@H]3[C@H]4C(=O)N(c5ccccc5)C(=O)[C@H]4C[C@H](OC(=O)NCc4ccccc4)[C@@]3(O)C2)cc1,"inconclusive: 50.1 µM [activator, single point]",–
CCc1ccc(S(=O)(=O)Nc2cccc(C3OCCCO3)c2)cc1,inactive,–
O=C(COc1ccc(Cl)cc1Cl)Nc1ccc(C(=O)OC2CCCCC2)cc1,inactive,–
CC(CCc1ccccc1)NC(=O)C1CCCN(c2nnc(-n3cccc3)s2)C1 (configuration not stated),inactive,–
O=C(NCCN1C(=O)C2C3C=CC(C3)C2C1=O)c1cc(F)cc(F)c1 (configuration not stated),inactive,–
O=C(COc1ccc(Cl)cc1)N(Cc1cccs1)C1CCS(=O)(=O)C1 (configuration not stated),inactive,–
COc1ccccc1Nc1ncnc2c1nc1n2CCCCC1,inactive,–
CCc1ccccc1NC(=O)CSc1nccn1C,inactive,–
CN1CCN(c2ncnc3c2[nH]c2ccc(F)cc23)CC1,inactive,–
C=CCN1C(=O)[C@H](CC(=O)N2CCCCC2)[C@@]2(C(=O)OCC)CCCC=C12,inactive,–

Compound,Potency,growth rescue (activation)
COc1cccc(-n2cc(CNCc3cn(C)nc3-c3ccccc3F)cn2)c1,"inconclusive: 7.08 µM [activator, partial curve]",–
Cc1cccc(N2CCN(C(=O)c3ccc4c(c3)CCN4S(=O)(=O)c3ccccc3)CC2)c1C,"inconclusive: 10 µM [activator, partial curve]",–
O=C(CCCn1c(=S)[nH]c2ccccc2c1=O)NC1CCCC1,–,inconclusive: 61.4% [activator]
COc1ccc(-c2nc(SCC(=O)NCc3ccco3)c(-c3ccccc3)[nH]2)cc1OC,inactive,–
Cc1cc(N2C(=O)C(O)=C(C(=O)c3ccc(C)o3)C2c2cccc(Cl)c2)no1 (configuration not stated),"inconclusive: 15.8 µM [activator, partial curve, poor fit]",–
COc1cccc(N2CCN(CC(=O)Nc3nnc(-c4ccccc4)s3)CC2)c1,"inconclusive: 12.6 µM [activator, partial curve, poor fit]",–
O=C(Nc1ccccc1)c1cc(C2CCCCN2C(=O)CCCc2ccccc2)on1 (configuration not stated),"inconclusive: 17.8 µM [activator, partial curve]",–
COC(=O)[C@]12C[C@H](CC(=O)NCc3ccc(OC)c(OC)c3)C(=O)N(CCc3ccc(OC)c(OC)c3)C1=C[C@H](COCc1ccccc1)O[C@@H]2C,"inconclusive: 11.2 µM [activator, partial curve]",–
Cc1ccc(S(=O)(=O)c2cn(CC(=O)Nc3ccccc3)c3cc4c(cc3c2=O)OCO4)cc1,inactive,–
Cc1noc(/C=C/N(C)C)c1S(=O)(=O)N1CCCC(C(=O)NCc2ccccc2Cl)C1 (configuration not stated),"inconclusive: 31.6 µM [activator, partial curve, poor fit]",–
COc1ccc(S(=O)(=O)Nc2ccc3c(c2)C(=O)N([C@@H](C)CO)C[C@H](C)[C@H](CN(C)S(=O)(=O)c2ccc(F)cc2)O3)cc1,"inconclusive: 20 µM [activator, partial curve, poor fit]",–
CC(C)C[C@@H](COCc1cccc(Cl)c1)N1CCN(C(=O)c2cccc(C(F)(F)F)c2)CCC1=O,"inconclusive: 44.7 µM [activator, single point]",–
CCn1c2c(c(=O)n3ncc(C(=O)Nc4ccc(F)c(Cl)c4)c13)CN(Cc1ccc(OC)cc1)CC2,"inconclusive: 50.1 µM [activator, single point]",–
CCOC1=C2CN(S(=O)(=O)c3ccc(C)cc3)[C@H](c3cccc(Cl)c3)C[C@H]2[C@H]2C(=O)N(c3ccccc3)C(=O)[C@H]2C1,"inconclusive: 8.91 µM [activator, partial curve, poor fit]",–
O=C(O)CC(C(=O)O)C(=Cc1ccccc1)c1ccccc1 (configuration not stated),inactive,–
COc1ccc(-c2nnc(SCc3nnc(-c4ccc(Cl)cc4)o3)n2-c2ccccc2)cc1,"inconclusive: 39.8 µM [activator, single point]",–
COc1cccc2cc(/C(=N/O)c3ccccc3)oc12,inactive,–
CC(=O)N(\C=C/C=C/C=C1\Sc2ccccc2C1=O)c1ccccc1,"inconclusive: 50.1 µM [activator, single point]",–
Cc1cccc(NC(=O)c2nc[nH]c2C(=O)N[C@@H](Cc2ccccc2)C(=O)OCc2ccccc2)c1,"inconclusive: 22.4 µM [activator, single point]",–
Cn1c(=O)c2ncn(CC(=O)Nc3cccc(-c4nc5ccccc5s4)c3)c2n(C)c1=O,"inconclusive: 31.6 µM [activator, single point]",–
COCC(=O)N[C@@H]1C[C@@H]2O[C@H](CO)CC[C@@H]2O[C@@H]1CCc1ccc(-c2ccccc2)cc1,"inconclusive: 35.5 µM [activator, partial curve, poor fit]",–
CC(=O)N(CCC(c1ccco1)C(C)C)Cc1ccc(Cl)cc1 (configuration not stated),"inconclusive: 50.1 µM [activator, single point]",–
O=C(c1ccccc1)c1ccc(N2CCN(C(=O)c3ccc(F)cc3F)CC2)c(F)c1,"inconclusive: 7.08 µM [activator, full curve]",–

Compound,Potency,growth rescue (activation)
COc1ccc(N2CCN(C(=O)c3ccc(N(C)S(=O)(=O)c4ccc(C)cc4)cc3)CC2)cc1,"inconclusive: 14.1 µM [activator, partial curve, poor fit]",–
CN(/N=C/c1ccccc1Cl)c1ncc(Cl)cc1C(F)(F)F,inactive,–
Cc1cccc(-n2nnnc2SCC(=O)N(CC(C)C)c2c(N)n(CC(C)C)c(=O)[nH]c2=O)c1,"inconclusive: 17.8 µM [activator, partial curve, poor fit]",–
COc1cc(-c2cc3nc(NCc4cccc(Cl)c4)ccn3n2)cc(OC)c1OC,"inconclusive: 28.2 µM [activator, single point]",–
c1ccc(Cc2ccc(OCCn3cncn3)cc2)cc1,inactive,–
CCCCc1nn2c(C)c(-c3ccc(OCC)cc3)nc2s1,inactive,–
Cc1ccc(-n2c(=O)[nH]c3sc4c(c3c2=O)CCNC4)cc1C,inactive,–
COC(=O)[C@@]1(Sc2ccc(C)cc2)CC(=O)N(c2ccc3c(ccn3C)c2)[C@@H]1c1ccccc1,"inconclusive: 44.7 µM [activator, single point]",–
Cc1c(/C=N/NC(=O)c2cc(=O)[nH]c(=O)[nH]2)c2ccccn2c1C(=O)c1ccccc1,inactive,–
CCOC(=O)c1cc(-c2ccc(F)cc2)n(CCC(=O)NCc2ccc(C)cc2)c1C,"inconclusive: 25.1 µM [activator, single point]",–
CC(C)(N[C@@H](Cc1c[nH]c2ccccc12)C(=O)NCC(c1ccccc1)c1ccccc1)C(=O)NC1CCCCC1,active: 14.1 µM,–
CCC(=O)N1CCc2cc(S(=O)(=O)NCCC(=O)Nc3cccc(SC)c3)ccc21,inactive,–
C#CCN1CC(N(C)CCOC(=O)c2cccs2)CS1(=O)=O (configuration not stated),inactive,–
O=C(NCc1nnc(SCC(=O)N2CCCc3ccccc32)n1-c1ccccc1)c1cccc2ccccc12,"inconclusive: 8.91 µM [activator, single point]",–
O=C(COC(=O)/C=C/c1c(F)cccc1Cl)NCC1CCCO1 (configuration not stated),inactive,–
CCN(C(=O)Cc1cccs1)c1nnc(-c2cc(OC)c(OC)c(OC)c2)s1,inactive,–
CC1CN(C(=O)Nc2ccc3snnc3c2)c2ccccc21 (configuration not stated),inactive,–
Cc1ccc(-n2ccnc(NCc3cccs3)c2=O)cc1C,inactive,–
Cc1nn(Cc2cccc(C(=O)NC(C)c3ccc(C(C)(C)C)cc3)c2)c(C)c1[N+](=O)[O-] (configuration not stated),"inconclusive: 11.2 µM [activator, partial curve, poor fit]",–
Cc1cc(-c2cc(-c3ccc(Cl)cc3)on2)nc(NC2CCCC2)n1,inactive,–
CCC(C(=O)Nc1cc(OC)ccc1OC)n1nc(-c2ccccc2)c2c(c1=O)CCCC2 (configuration not stated),"inconclusive: 20 µM [activator, partial curve, poor fit]",–
